The supplement of paper PMC4967469
A lower IC50 marks a more sensitive line; a fit beyond the top or the lowest dose is shown as a bound at that dose. AUC is the area under the same curve over the 256-fold range up to the top dose, as a fraction; it is 1 without any effect and falls as sensitivity rises. For some assays here: Any top dose called inferred was derived from the fitted curves, not read from the paper. For some assays here: An entry number marks a drug with two screens in the source, which often give different values.

Experiments:
Experiment in all cases: Viability of human cancer cell lines after 72 h of drug (GDSC screen)
AUY922 = compound: CCNC(=O)c1noc(-c2cc(C(C)C)c(O)cc2O)c1-c1ccc(CN2CCOCC2)cc1 [AUY922]; conditions: top dose 0.256 µM; top dose inferred
Procedure: (§1)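 Human cancer cell lines in 384-well plates, medium with 10% serum, drug for 72 h over a 256-fold dose range (nine 2-fold or five 4-fold steps up to the top dose). Adherent lines were fixed and stained with the nucleic acid dye Syto60, suspension lines read with resazurin; signal relative to control wells, capped at 0 and 100%. One two-parameter sigmoid per drug and line, fitted in a mixed model over all curves with the slope shared within a line.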

KIN001-270 = compound: Cc1ccc(Nc2cc(-c3cccc(N4C(=O)c5ccccc5C4=O)c3)ncn2)cc1NS(C)(=O)=O [KIN001-270]; conditions: top dose 20 µM; top dose inferred
Procedure: as §1

T0901317 = compound: O=S(=O)(c1ccccc1)N(CC(F)(F)F)c1ccc(C(O)(C(F)(F)F)C(F)(F)F)cc1 [T0901317]; conditions: top dose 10.24 µM; top dose inferred
Procedure: as §1

Bicalutamide = compound: CC(O)(CS(=O)(=O)c1ccc(F)cc1)C(=O)Nc1ccc(C#N)c(C(F)(F)F)c1 [Bicalutamide]; conditions: top dose inferred
Procedure: as §1

MP470 = compound: S=C(NCc1ccc2c(c1)OCO2)N1CCN(c2ncnc3c2oc2ccccc23)CC1 [MP470]; conditions: top dose 20 µM; top dose inferred
Procedure: as §1

LFM-A13 = compound: C/C(O)=C(\C#N)C(=O)Nc1cc(Br)ccc1Br [LFM-A13]; conditions: top dose 16 µM; top dose inferred
Procedure: as §1

Nilotinib = compound: Cc1cn(-c2cc(NC(=O)c3ccc(C)c(Nc4nccc(-c5cccnc5)n4)c3)cc(C(F)(F)F)c2)cn1 [Nilotinib]; conditions: top dose 2 µM
Procedure: as §1

TW-37 = compound: CC(C)c1ccccc1Cc1cc(C(=O)Nc2ccc(S(=O)(=O)c3ccccc3C(C)(C)C)cc2)c(O)c(O)c1O [TW-37]; conditions: top dose 5 µM
Procedure: as §1

[1] = top dose 1.024 µM, screen: GDSC drug entry 150
[2] = top dose 10 µM, screen: GDSC drug entry 1502

Cell Line | AUC (AUY922) | IC50 (AUY922) | AUC (KIN001-270) | IC50 (KIN001-270) | AUC (T0901317) | IC50 (T0901317) | AUC (Bicalutamide; [1]) | IC50 (Bicalutamide; [1]) | AUC (Bicalutamide; [2]) | IC50 (Bicalutamide; [2]) | AUC (MP470) | IC50 (MP470) | AUC (LFM-A13) | IC50 (LFM-A13) | AUC (Nilotinib) | IC50 (Nilotinib) | AUC (TW-37) | IC50 (TW-37)
MIA-PaCa-2 (pancreas, adherent) | 0.479 | 14 nM | 0.972 | > 20000 nM | 0.972 | > 10200 nM | 0.985 | > 1020 nM | 0.983 | > 10000 nM | 0.935 | > 20000 nM | 0.973 | > 16000 nM | 0.917 | > 2000 nM | 0.586 | 552 nM
HuP-T4 (pancreas, adherent) | 0.593 | 29.2 nM | 0.971 | > 20000 nM | 0.978 | > 10200 nM | 0.983 | > 1020 nM |  |  | 0.969 | > 20000 nM | 0.94 | > 16000 nM | 0.984 | > 2000 nM | 0.587 | 551 nM
CAL-120 (breast, adherent) | 0.599 | 32.3 nM | 0.954 | > 20000 nM | 0.98 | > 10200 nM | 0.98 | > 1020 nM | 0.948 | > 10000 nM | 0.945 | > 20000 nM | 0.954 | > 16000 nM | 0.974 | > 2000 nM | 0.583 | 564 nM
KP-3 (pancreas, adherent) | 0.653 | 46.4 nM | 0.976 | > 20000 nM | 0.984 | > 10200 nM | 0.981 | > 1020 nM | 0.967 | > 10000 nM | 0.965 | > 20000 nM | 0.972 | > 16000 nM | 0.984 | > 2000 nM | 0.495 | 301 nM
ME-180 (cervix, adherent) | 0.728 | 73.8 nM | 0.98 | > 20000 nM | 0.934 | > 10200 nM | 0.983 | > 1020 nM | 0.977 | > 10000 nM | 0.897 | > 20000 nM | 0.984 | > 16000 nM | 0.975 | > 2000 nM | 0.346 | 114 nM
UM-UC-3 (bladder, adherent) | 0.561 | 23.3 nM | 0.898 | > 20000 nM | 0.947 | > 10200 nM | 0.988 | > 1020 nM | 0.957 | > 10000 nM | 0.931 | > 20000 nM | 0.957 | > 16000 nM | 0.977 | > 2000 nM | 0.395 | 
PA-TU-8988T (pancreas, adherent) | 0.54 | 20.6 nM | 0.979 | > 20000 nM | 0.95 | > 10200 nM | 0.986 | > 1020 nM | 0.952 | > 10000 nM | 0.937 | > 20000 nM | 0.964 | > 16000 nM | 0.959 | > 2000 nM | 0.496 | 304 nM
KP-1N (pancreas, adherent) | 0.483 | 14.4 nM |  |  |  |  | 0.986 | > 1020 nM | 0.971 | > 10000 nM |  |  | 0.979 | > 16000 nM | 0.969 | > 2000 nM | 0.394 | 158 nM
SW13 (adrenal gland, adherent) | 0.606 | 31.4 nM | 0.987 | > 20000 nM | 0.984 | > 10200 nM | 0.986 | > 1020 nM | 0.964 | > 10000 nM | 0.922 | > 20000 nM | 0.851 | 12500 nM | 0.962 | > 2000 nM | 0.364 | 131 nM
MDA-MB-361 (breast, adherent) | 0.569 | 24.6 nM | 0.984 | > 20000 nM | 0.974 | > 10200 nM | 0.987 | > 1020 nM | 0.985 | > 10000 nM | 0.913 | > 20000 nM | 0.978 | > 16000 nM | 0.976 | > 2000 nM | 0.5 | 312 nM
HT-1080 (fibrosarcoma, adherent) | 0.524 | 18.5 nM | 0.985 | > 20000 nM | 0.987 | > 10200 nM | 0.989 | > 1020 nM | 0.986 | > 10000 nM | 0.974 | > 20000 nM | 0.983 | > 16000 nM | 0.922 | > 2000 nM | 0.346 | 123 nM
BxPC-3 (pancreas, adherent) | 0.658 | 46.6 nM | 0.983 | > 20000 nM | 0.961 | > 10200 nM | 0.983 | > 1020 nM | 0.974 | > 10000 nM | 0.966 | > 20000 nM | 0.914 | > 16000 nM | 0.984 | > 2000 nM | 0.788 | 
SCC90 (head and neck, adherent) | 0.692 | 70.2 nM |  |  |  |  | 0.971 | > 1020 nM | 0.978 | > 10000 nM |  |  | 0.967 | > 16000 nM | 0.981 | > 2000 nM | 0.575 | 547 nM
MDA-MB-453 (breast, adherent) | 0.845 | 215 nM | 0.962 | > 20000 nM | 0.95 | > 10200 nM |  |  |  |  | 0.526 | 1490 nM | 0.966 | > 16000 nM | 0.986 | > 2000 nM |  | 
